# Results from PubChem BioAssay AID488969 (Vanderbilt High Throughput Screening Facility, 2010).
# In all, about 110,000 compounds were measured (“z-score”: median about -0.1, highest 2% from about 2 on). The list shows a part of the results. Calls of active or inactive are those of the source.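 How the source made its calls: active means z-score in the third read window above 3 or below -3; inactive means the rest.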
# Target: Metabotropic glutamate receptor 8 (Rattus norvegicus) (UniProt P70579)
# Test: mGluR8 Gi/Go-coupled signaling modulation – cell-based, rat, thallium flux, HTS, primary screen (AID 488969)
# Conditions: HEK293 rat mGluR8, GIRK (G protein-gated inwardly rectifying potassium channel) thallium flux, FluoZin2; at 10 µM; stronger effect = higher value; submaximal glutamate (EC20) added with thallium
# Chain of UniProt P70579 (P70579 whole entry, looked up): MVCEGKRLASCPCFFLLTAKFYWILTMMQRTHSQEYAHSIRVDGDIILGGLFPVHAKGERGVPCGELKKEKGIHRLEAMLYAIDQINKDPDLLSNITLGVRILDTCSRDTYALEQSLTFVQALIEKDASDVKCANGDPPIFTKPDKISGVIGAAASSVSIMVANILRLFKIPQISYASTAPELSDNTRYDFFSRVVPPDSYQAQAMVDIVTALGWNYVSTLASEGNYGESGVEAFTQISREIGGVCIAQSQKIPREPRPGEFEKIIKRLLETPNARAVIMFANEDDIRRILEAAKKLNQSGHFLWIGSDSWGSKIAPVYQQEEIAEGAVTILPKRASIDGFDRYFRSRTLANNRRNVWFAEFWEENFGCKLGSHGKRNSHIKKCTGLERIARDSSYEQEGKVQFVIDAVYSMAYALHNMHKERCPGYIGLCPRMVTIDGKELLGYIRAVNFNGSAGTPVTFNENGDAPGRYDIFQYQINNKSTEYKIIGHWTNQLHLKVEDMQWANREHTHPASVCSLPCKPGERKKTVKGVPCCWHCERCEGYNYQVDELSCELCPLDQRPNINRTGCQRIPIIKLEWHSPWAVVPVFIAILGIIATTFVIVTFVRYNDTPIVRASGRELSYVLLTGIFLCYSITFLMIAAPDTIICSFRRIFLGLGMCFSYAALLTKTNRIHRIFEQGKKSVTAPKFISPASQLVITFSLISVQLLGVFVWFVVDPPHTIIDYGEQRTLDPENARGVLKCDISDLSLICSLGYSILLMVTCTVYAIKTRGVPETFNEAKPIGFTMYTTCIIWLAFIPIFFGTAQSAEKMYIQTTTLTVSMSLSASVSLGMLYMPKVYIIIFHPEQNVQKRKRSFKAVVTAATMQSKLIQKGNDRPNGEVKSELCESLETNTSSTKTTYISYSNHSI
row,SMILES,z-score
1,CCOc1ccc(/C=C/C2=Cc3c(sc(NC(=O)CSc4n[nH]c(N)n4)c3C#N)C(C)(C)C2)cc1,-0.101
2,COC(=O)c1cc(NC(=O)Cn2c(=O)cnc3ccccc32)cc(C(=O)OC)c1,0.381
3,CCC(=O)N1CCN(c2nc(-c3ccccc3)c3c(c2C#N)CCCC3)CC1,-2.34
4,O=c1c2c(nc3c(-c4ccccc4)c[nH]n13)CCCC2,active: 3.66
5,CCN1CCN(C(=O)C2CCN(Cc3cc(Cl)ccc3O)CC2)CC1,-0.32
6,O=C(NCc1cccs1)C1CCCN(S(=O)(=O)c2cccs2)C1 (stereo not drawn),0.213
7,O=C(Cn1cnc2c(cnn2-c2ccccc2)c1=O)OCc1ccccc1,0.109
8,COc1ccc2[nH]c(C(=O)O)c(CCNC(C)=O)c2c1,1.48
9,CCCCNS(=O)(=O)c1ccc(NC(=O)C2c3ccccc3Oc3ccccc32)cc1,-0.165
10,COc1ccc(NC(=O)C2CCCN2S(=O)(=O)c2ccc(C)cc2)cc1 (stereo not drawn),-1.04
11,Cc1c(Cl)cccc1NC(=S)NCc1ccc(Cl)cc1,-0.0301
12,COC(=O)c1cc(Br)c(=O)n(CCN2CCOCC2)c1,-0.36
13,Cc1ccc(NC(=S)Nc2nc(CC(=O)Nc3ccccc3)cs2)cc1,0.0541
14,Cc1ccc(C(=O)ON=C2CCN(c3ccc([N+](=O)[O-])cc3)CC2)cc1,-0.427
15,O=C(CS(=O)(=O)Cc1ccccc1)Nc1ncccn1,0.476
16,O=C1c2ccccc2C(Nc2ccc(F)c(Cl)c2)N1Cc1ccco1 (stereo not drawn),-0.196
17,O=C(CCN1C(=O)c2ccccc2C1=O)OCN1C(=O)c2ccccc2C1=O,-0.0495
18,CC(=O)c1cccc(NC(=O)CC2SC(N3CCCCC3)=NC2=O)c1 (stereo not drawn),-0.528
19,Cc1sc(NC(=O)CN(Cc2ccc(F)cc2)C(=O)C(C)(C)C)c(C(N)=O)c1C,1.19
20,COc1ccc(CNC(=O)c2cccc(N(C)C)c2)cc1,-0.0149
21,CCOc1ccc2[nH]c(=O)c(CN(Cc3ccco3)Cc3nnnn3Cc3ccccc3)cc2c1,-0.553
22,CCc1nc(N2CCCC2C(=O)O)c2oc3ccccc3c2n1 (stereo not drawn),0.0587

row,SMILES,z-score
1,O=C(Nc1ccc(C(=O)N2CCCC2)cc1)Nc1ccc(Cl)cc1Cl,-0.466
2,O=C(/C=C/c1cccc([N+](=O)[O-])c1)NC(=S)Nc1ccc(CN2CCOCC2)cc1,-0.14
3,CCOc1ccc(/C(O)=C2\C(=O)C(=O)N(CCN(C)C)C2c2cc(OC)ccc2OC)cc1Cl (stereo not drawn),0.738
4,CCOc1cc2c3c(c1)C1(C(=O)N3C(C)(C)CC2C)C(C#N)=C(N)N2C(=C1C#N)Nc1ccccc12 (stereo not drawn),-0.341
5,O=C(NCc1cccs1)C1CCCN(S(=O)(=O)c2ccc3c(c2)OCO3)C1 (stereo not drawn),-0.181
6,CCCCCCC1CC(CCC(=O)Nc2ccc([N+](=O)[O-])cc2)C(=O)O1 (stereo not drawn),-0.115
7,C/C(N)=C(/C#N)C(=O)CSc1cc(Cl)ccc1Cl,-0.112
8,COC(=O)c1nn(C23CC4CC(CC(C4)C2)C3)c2c1C(=O)N(c1ccc(F)cc1)C2=O,-0.0402
9,CCOC(=O)C1C(c2ccc3c(c2)OCO3)NC(=O)NC1(O)C(F)(F)F (stereo not drawn),0.309
10,O=C1CCCC(=O)C1=C1SCCS1,-0.126
11,COc1ccc(OC)c(-n2c(CN3CCC(C(N)=O)CC3)nc3ccccc3c2=O)c1,0.343
12,CCc1cc(C(=O)NNC(=S)NCC2CCCO2)cs1 (stereo not drawn),0.102
13,CCOC(=O)CN1C(c2ccc(O)cc2)Nc2ccc(Br)cc2C1c1ccccc1 (stereo not drawn),-0.199
14,CCOc1ccc(OCC)c(S(=O)(=O)NNC(=O)c2c(C)nc3ccccn23)c1,-1.42
15,Cc1ccc(S(=O)(=O)NC(CC(=O)O)c2ccccc2)cc1 (stereo not drawn),-0.0583
16,CC1CCC(=NNC(=O)Cc2ccccc2)CC1 (stereo not drawn),-0.025
17,COc1cc(NC(=O)C(=O)NNC(=O)C2CCCCC2)c(OC)cc1Cl,active: 3.98
18,O=C1CC(C(=O)N2CCOCC2)C2(CCCCC2)O1 (stereo not drawn),1.55
19,COC(=O)N/N=C/c1cn(CCCOc2ccc(C)cc2)c2ccccc12,-0.0934
20,CC(C)(C)N1CC(c2nc3ccccc3n2Cc2ccc(F)cc2)CC1=O (stereo not drawn),-0.126
21,CCc1cc2ccc(OC)cc2nc1SCC(=O)Nc1cc(C)on1,0.0439
22,COc1ccc(NC(=O)CCN2C(=O)c3ccccc3S2(=O)=O)cc1,1.12

row,SMILES,z-score
1,COc1ccc(Cc2n[nH]c(=O)c3ccccc23)cc1OC,0.285
2,Cc1ccc(S(=O)(=O)NCCOC(=O)Nc2sc(=S)n(C)c2C)cc1,-0.14
3,CNC(=O)COC(=O)c1cc(NC(=O)c2ccco2)c(OC)c(OC)c1,-0.166
4,CCC(c1nnnn1C(C)C)N1CCN(C2CCCC2)CC1 (stereo not drawn),-0.133
5,CCNc1nc(C)cc(COC)c1C#N,0.507
6,Cn1c(=O)oc2cc(S(=O)(=O)N3CCc4ccccc4C3)ccc21,0.149
7,Cc1[nH]ccc(=O)c1OCc1c(Cl)cccc1Cl,-0.261
8,CCOC(=O)C1=C(Nc2ccccc2)CC(C)(O)C(C(=O)OCC)C1c1ccc(Cl)cc1 (stereo not drawn),-0.445
9,CCn1c(O)c(/C=N/N=C2CCCC2)c2ccc(C3=NNC(=O)CC3)cc21,-0.164
10,CCOc1c(Cl)cnn(-c2ccc(C)cc2)c1=O,1.19
11,CCc1nc(-c2ccc(-c3ccc(OC)cc3)nc2OC)no1,0.18
12,Cn1nnnc1SCC(=O)N1CCN(c2cccc(Cl)c2)CC1,-0.0243
13,Cc1ccc2c(CC(=O)N3CCN(S(=O)(=O)c4ccc5c(c4)OCCO5)CC3)coc2c1,-0.362
14,CCc1ccc(C(=O)COc2ccc(NC(C)=O)cc2)cc1,-0.096
15,Cc1ccc(NC(=O)c2noc3c2CCCCC3)cc1,-0.00303
16,Cc1ccc(-c2noc(-c3ccccc3C(=O)N3CCOCC3)n2)cc1,-0.231
17,NNc1nc(-c2ccccc2Cl)nc2sc3c(c12)CCCC3,-0.295
18,CC1CCC(NC(=O)C2c3ccccc3C(=O)N2CCCN2CCOCC2)CC1 (stereo not drawn),-0.425
19,CCC(CC)c1nnc(NC(=O)CCN2C(=O)c3ccccc3C2=O)s1,-0.264
20,Cc1ccc(NC(=O)c2ccc(NCc3ccco3)c([N+](=O)[O-])c2)cc1Cl,-0.0411
21,CC(CCc1ccccc1)NC(=O)CSc1nnnn1C (stereo not drawn),0.307
22,O=c1c2ccccc2nnn1CSc1nnc(-c2ccc3c(c2)OCO3)o1,0.0266

row,SMILES,z-score
1,O=C(NC1(C(F)(F)F)NC(=O)N(Cc2ccccc2)C1=O)c1cccs1 (stereo not drawn),-0.255
2,COCC(=O)OCn1nnc2ccccc2c1=O,0.28
3,CC(=O)c1c(C)[nH]c(C(=O)OCn2nnc3ccccc3c2=O)c1C,-0.597
4,Cn1c(NCCN2CCOCC2)nc2c1c(=O)n(Cc1cccc(Cl)c1)c(=O)n2C,-0.615
5,O=C(CSc1nnc(-c2cccs2)n1-c1ccccc1)N1CCc2ccccc21,0.058
6,C=CCOc1ccc(/C(O)=C2/C(=O)C(=O)N(CCCn3ccnc3)C2c2cccs2)cc1 (stereo not drawn),-0.428
7,O=C(CSc1nnnn1C1CCCCC1)NCc1ccco1,-0.228
8,CC(C)c1ccccc1-n1c(SCc2cc(=O)oc3ccc4ccccc4c23)nnc1-c1cccnc1,-0.0151
9,COc1cccc(C(O)CC(N)=O)c1 (stereo not drawn),0.108
10,CCc1ccc(OCC(=O)NC(=S)Nc2ccc(F)cc2)c(Br)c1,0.182
11,Cc1nc(SCC(=O)NCC2CCCO2)c2oc3ccccc3c2n1 (stereo not drawn),0.0303
12,CCCC(=O)Nc1nc(C)c(-c2csc(Nc3cc(OC)ccc3OC)n2)s1,-0.282
13,CCN(CC)C(=O)/C(=C/c1ccc2c(c1)OCO2)NC(=O)c1ccc(Br)cc1,-0.142
14,CCOC(=O)c1c(-c2ccccc2)csc1NC(=O)c1cc(S(=O)(=O)N2CCOCC2)ccc1C,-0.000506
15,O=C(NCCc1c[nH]c2ccccc12)/C(=C\c1cccs1)NC(=O)c1ccccc1,0.0313
16,Cc1ccc2c(c1)N(Cc1ccccn1)C(=O)C(C)O2 (stereo not drawn),-0.941
17,N#CC12CCCCC1CC1CCCCC1(C#N)N2Cc1ccccn1 (stereo not drawn),-0.31
18,O=C(N/N=C/c1ccco1)c1ccccc1OCc1ccccc1Cl,-1.38
19,CCc1ccc(-n2c(C)cc(/C=N/NC(=O)OC)c2C)cc1,0.58
20,Cc1ccc(NC2=C(N3CCCCC3)C(=O)c3ccccc3C2=O)cc1,-0.184
21,Cc1ccc(NC(=O)c2cccc3c2C(=O)N(C2CCCCC2)C3)cc1,-0.304
22,Cc1cccc(NC(=O)CSc2nnnn2-c2cccnc2)c1,-0.00427

row,SMILES,z-score
1,Cc1nc(NNC(=O)c2ccccc2)cc(-c2ccccc2)n1,-0.00736
2,CCOc1ccc(OCC)c(NC(=O)CCS(=O)(=O)c2ccc(Br)s2)c1,0.479
3,CCN(CC)CCN1C(=O)C(=O)/C(=C(/O)c2ccc(OC)cc2)C1c1cccs1 (stereo not drawn),-0.0859
4,CC(C)CCNC(=O)Cc1c(C(=O)O)[nH]c2ccc(Cl)cc12,0.538
5,Cc1ccc(CN2C(=O)CCC2C(=O)NCCCN2CCCCC2C)cc1 (stereo not drawn),-0.435
6,Cc1nc(N2CCCC2C(=O)O)c2oc3ccccc3c2n1 (stereo not drawn),-0.651
7,O=C(c1cnc2c(c1)COc1ccc(Cl)cc1-2)c1ccccc1O,0.0372
8,O=C(NC(=O)c1cccc(F)c1)OC[C@@H]1CCCN2CCCC[C@H]12,0.0626
9,CC(NC(=O)COC(=O)Cc1ccccc1[N+](=O)[O-])c1ccccc1 (stereo not drawn),-0.0899
10,Cc1cc(NC(=O)CCN2C(=O)/C(=C/c3ccccc3Cl)SC2=S)no1,-0.0728
11,CCOc1ccc(NC(=O)CCCOc2cc(=O)n(C)c3ccccc23)cc1,0.038
12,Cc1ccc(NC(=O)C2CCCN2S(=O)(=O)c2ccc3c(c2)CCC(=O)N3)cc1Cl (stereo not drawn),0.159
13,OC1CCCN(Cc2ccc3c(c2)Cc2ccccc2-3)C1 (stereo not drawn),0.315
14,CCOC(=O)N1CCN(C(=O)CSc2nc3ccccc3c(=O)n2-c2ccccc2)CC1,-0.915
15,COc1ccc(NC(=O)CCSc2ccc3ccccc3n2)cc1,-0.187
16,CCOC(=O)C(C)On1c(SC(C)C(=O)OCC)nc2ccccc2c1=O (stereo not drawn),-0.305
17,Cc1ccc(OCCCCN2CCC(C)CC2)c(Br)c1,0.342
18,O=[N+]([O-])/C=C/c1cn(Cc2ccc(F)cc2)c2ccccc12,0.0891
19,CCN=C1SC(CC(=O)NCCc2ccc(OC)cc2)C(=O)N1CC (stereo not drawn),-0.109
20,Cc1cccc(OCCNc2cc(N3CCN(CCO)CC3)ccc2[N+](=O)[O-])c1,-0.0985
